In all, about 45,000 compounds went through this assay and about 65 (0.1%) were called active. Calls follow the shape of the dose curve; as a rule, active = well fitted activation curve with a large enough effect; inconclusive = small, poorly fitted or top-dose-only effect; inactive = no such curve, though single readings can be large or run the other way. Some of the results follow.
molecular target: Galactocerebrosidase (Homo sapiens) (UniProt P54803); test: A Novel Cell-Based Assay to Identify Small Molecules for B -Galactocerebrosidase; details: 145M-Twi-hGALC-G270D cells (Twitcher mouse brain line with human GALC G270D), HMU-beta-Gal fluorescence, 48 h; series mostly up to 57.5 µM; activation: at the top concentration; also: 0% is about no effect; nearly all actives have a fitted effect of over 65% in size
Method in brief: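 Brain-derived Twitcher mouse 145M-Twi cells stably expressing human GALC-G270D or wild-type GALC, treated live, then residual GALC activity read by fluorescence of HMU-b-Gal substrate (0.1 mM final) in citrate-phosphate buffer pH 5.2 with sodium taurocholate. Signal increase indicates enhancement.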

Sequence of UniProt P54803 (P54803 whole entry, looked up): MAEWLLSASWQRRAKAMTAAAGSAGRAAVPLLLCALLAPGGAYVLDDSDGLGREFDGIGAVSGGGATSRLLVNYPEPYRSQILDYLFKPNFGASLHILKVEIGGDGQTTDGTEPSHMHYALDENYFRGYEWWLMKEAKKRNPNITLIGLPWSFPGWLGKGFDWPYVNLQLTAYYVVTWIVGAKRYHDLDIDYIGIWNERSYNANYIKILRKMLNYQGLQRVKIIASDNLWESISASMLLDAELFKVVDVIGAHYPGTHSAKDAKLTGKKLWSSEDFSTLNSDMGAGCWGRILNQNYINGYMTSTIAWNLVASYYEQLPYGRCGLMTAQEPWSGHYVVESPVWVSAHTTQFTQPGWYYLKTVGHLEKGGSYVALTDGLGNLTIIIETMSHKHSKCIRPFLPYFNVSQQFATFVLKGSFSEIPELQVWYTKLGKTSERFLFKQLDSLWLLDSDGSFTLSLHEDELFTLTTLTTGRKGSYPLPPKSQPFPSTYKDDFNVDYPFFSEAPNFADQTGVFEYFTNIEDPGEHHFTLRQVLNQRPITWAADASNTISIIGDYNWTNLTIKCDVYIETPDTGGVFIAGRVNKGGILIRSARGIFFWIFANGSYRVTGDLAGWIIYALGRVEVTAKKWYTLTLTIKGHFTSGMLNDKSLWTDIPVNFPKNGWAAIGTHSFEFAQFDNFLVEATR

activation, inactive:
COc1cc(NC(=O)NCCn2nnc3cc(S(=O)(=O)N(C)C)ccc32)cc(OC)c1OC -8.8%
Cc1ccc(-c2cc3ncc4c(n3n2)-c2ccccc2OC4)cc1 -13.4%
CCC(Sc1ccc2nnc(CCNS(=O)(=O)c3ccc(OC)cc3)n2n1)C(=O)OC (centres undefined) -13.6%
COc1ccc(C(=O)NCc2ccc3c(c2)CCN3C(=O)c2cccc(C)c2)cc1OC -17.2%
Cc1oc2ncnc(N3CCOCC3)c2c1C(=O)NCc1ccccc1 -7.38%
O=C(CCn1cccn1)Nc1cccc(C(F)(F)F)c1 -9.82%
O=C(CCSCc1cnn(-c2ccccc2)c1-n1cccc1)NCc1ccc(Cl)cc1 -10.7%
Cc1ccc(-n2c(=O)c3c(cnn3C)n(CC(=O)Nc3cc(C)ccc3C)c2=O)cc1 -10.2%
Cc1ccc(NC(=O)Cn2cc(C(=O)c3cccs3)c3ccccc32)cc1C -6.65%
Cc1ccc(C(=O)c2cn(Cc3cccc(F)c3)c3nc(C)ccc3c2=O)cc1 -7.64%
O=C1c2c(O)cccc2Cc2cccc(O)c21 -17.9%
Cc1cccc(NS(=O)(=O)c2ccc(Cl)c(C(=O)Nc3ccccc3C)c2)c1 -11.6%
CCCN(Cc1cccs1)C(=O)Nc1ccc(Br)c(C)c1 -10.6%
CC(C)Cn1c(-c2ccc(S(=O)(=O)N3CCCC3)cc2)csc1=Nc1ccccc1 -20.5%
O=C(O)CCCC[P+](c1ccccc1)(c1ccccc1)c1ccccc1 -0.344%
Cc1nc2sccn2c(=O)c1S(=O)(=O)N1CCN(c2ccc(F)cc2)CC1 -6.8%
COc1ccc(CCNC(=O)CSc2nc3ccccc3nc2Cc2ccc(Cl)cc2)cc1OC -4.3%
O=C(Nc1nnc(S(=O)(=O)N2CCCC2)s1)c1ccc(F)cc1 -3.06%
COc1ccc(OC)c(-n2cnc3cc(C(=O)NC4CCCC4)ccc32)c1 -19.3%
O=C(NC1CC(=O)N(c2ccccc2)C1)c1cc2ccccc2o1 (centres undefined) -5.18%
O=C(Nc1ccc(Cl)cc1)Nc1ccc(Cl)c(Cl)c1 -16.4%
Cc1oc(-c2ccccc2)nc1CNS(=O)(=O)c1ccc(Cl)cc1 -2.73%
CCCCOc1ccccc1NC(=O)Cn1c(-c2cncs2)nc2ccccc21 -1.35%
CCOC(=O)c1cccc(NC(=O)c2cc3c(=O)n(Cc4cccnc4)ccc3nc2C)c1 -17.9%
COc1ccc(Nc2nc3c(S(=O)(=O)c4ccccc4)nnn3c3ccc(Cl)cc23)cc1OC -12.2%
Cc1cccc(-c2nc(N3CCN(c4ccc(F)cc4)CC3)c3ccccc3n2)c1 2.43%
CN1CCN(Cc2c(O)ccc3cc(-c4ccccc4)c(=O)oc23)CC1 -26.6%
CCOc1ccc(-c2cc(C(=O)NCc3ccc(OC)cc3)c3c(-c4ccc(F)cc4)[nH]nc3n2)cc1 -15.9%
CCOC(=O)c1cccc(Nc2nc(C(=O)OCC)nc3ccccc23)c1 29.3%
CCCCCn1c(=O)[nH]c2cc(C(=O)N3CCN(c4ccccc4F)CC3)ccc2c1=O -13.4%
Cc1ccc(NC(=O)c2cc(-c3cccs3)on2)cc1C -14%
CCN1CCN(CCCNC(=O)c2cnn(-c3ccc(C)cc3)c2C2CCN(C(=O)OC(C)(C)C)CC2)CC1 -12.2%
CCOC(=O)c1[nH]c2ccccc2c1NC(=O)c1ccc(OCC)cc1 -17.3%
Cc1ccc(-n2ncc3c(NCCCn4ccnc4)ncnc32)cc1 -17.9%
COc1cccc(-n2c(SCC(=O)Nc3ccc(F)cc3F)nc3c([nH]c4ccccc43)c2=O)c1 -16.2%
c1csc(-c2nc3ccccn3c2Nc2ccc3c(c2)OCCO3)c1 -0.908%
COc1ccc(S(=O)(=O)NCCS(=O)(=O)N2CCN(c3ccccc3F)CC2)cc1 -41.2%
Cc1nnc(N2C(=O)c3oc4ccccc4c(=O)c3C2c2ccc(F)cc2)s1 (centres undefined) -14.8%
Cc1c(C(=O)NCc2ccc(F)cc2)sc2nc(-c3ccccc3)cn12 1.64%
CCOc1cc(-c2ccc(OC(=O)c3ccc(Cl)cc3)c(OC)c2)cc(=O)c2c(C)oc(C)c12 -7.08%
COC(=O)c1c(-c2ccc(Cl)cc2)noc1N1CCN(c2cccc(OC)c2)CC1 -10.3%
COc1ccc(CCNC(=O)c2ccc(Cn3c(=O)c4ccccc4n(Cc4ccccc4Cl)c3=O)cc2)cc1OC 2.28%
CCOc1ccccc1C(=O)NCC(c1ccc(N(C)C)cc1)N1CCc2ccccc21 (centres undefined) -9.32%
Oc1c(C(c2ccc(Cl)cc2)N2CCCC2)sc2nc(-c3ccco3)nn12 (centres undefined) -12.6%
COc1cc(-c2nc3cccc(C)n3c2Nc2ccc3c(c2)OCCO3)ccc1O -16.2%
COc1ccccc1CNC(=O)c1cccc(NC(=O)N2CCSc3ncccc32)c1 -12.5%
CC(=O)c1ccc(N2CCN(c3ncnc4onc(-c5ccc(Cl)cc5)c34)CC2)cc1 -3.86%
CCCCOC(=O)c1ccc(NC(=O)CSc2nc3c(c(=O)[nH]2)CCC3)cc1 -15.1%
O=S(=O)(c1ccccc1)c1nnn2c1nc(NCc1ccccc1)c1cc(Cl)ccc12 -10.6%
CC(C)c1ccc(NC(=O)CCS(=O)(=O)c2ccc3c(c2)CC(=O)N3C)cc1 -6.25%
CCCCCn1cc2c(c1-c1ccccc1Br)c(=O)n(C)c(=O)n2C -6.87%
O=C(Nc1cccc(F)c1)c1oc2ccccc2c1NC(=O)C12CC3CC(CC(C3)C1)C2 -19%
Cc1ccc2occ(CC(=O)Nc3ccc(S(=O)(=O)N4CCC(C)CC4)cc3)c2c1 -16.8%
Cc1nc2nc(C)c(CCC(=O)NCc3ccccc3)c(C)n2n1 -15.2%
CCOc1ccc2ncc3c(-c4cccc(OC)c4)nn(-c4ccccc4)c3c2c1 0.102%
CCOCCn1ccc2c(OCC(=O)Nc3cccc(F)c3)cccc2c1=O -12.5%
CCOc1cc(-c2ccc(OC(=O)c3ccccc3)c(OC)c2)cc(=O)c2c(C)oc(C)c12 -6.27%
CCOc1ccccc1CNCCSc1nnnn1C -11.6%
COc1cccc(Cc2nc3ccccc3nc2SCC(=O)Nc2cc(OC)ccc2OC)c1 7.47%
CCC(C)NC(=O)Cn1c(=O)n(Cc2ccc(C(=O)NCc3ccc(C)cc3)cc2)c(=O)c2ccccc21 (centres undefined) -10.5%
COc1ccc(S(=O)(=O)N2CCC(C(=O)Nc3cc(C(F)(F)F)ccc3Cl)CC2)cc1 -11.6%
O=c1[nH]c(=O)n([C@H]2C[C@H](O)[C@@H](CO)O2)cc1F -16%
COc1ccc(OC)c2sc(N3CCN(C(=O)C4COc5ccccc5O4)CC3)nc12 (centres undefined) -6.85%
Cc1ccc(C2c3c(oc4ccccc4c3=O)C(=O)N2c2nnc(C)s2)cc1 (centres undefined) -16.3%
COc1ccc(C)cc1Nc1ncnc2c1c(-c1ccccc1)cn2-c1ccc(C)cc1 -10.5%
O=c1c2sc3ccccc3c2n(Cc2ccccc2)c(=O)n1CCc1ccccc1 -4.94%
CCN(CCCNC(=O)CN1N=C(c2ccccc2)CCC1=O)c1ccccc1 2.53%
CC(C)CCNC(=O)C(Cc1ccccc1)NS(=O)(=O)c1ccc2c(c1)c(=O)n(C)c(=O)n2C (centres undefined) -9.4%
Cc1ccc(S(=O)(=O)C(CNC(=O)COc2ccccc2)c2ccco2)cc1 (centres undefined) -21.8%
CCCN(CCC)C(=O)Cn1c(=O)n(CCCCCC(=O)NCc2ccccc2Cl)c(=O)c2sccc21 -5.78%
CCCOc1ccc(-c2cc(C(F)(F)F)c(C#N)c(SCCC(=O)O)n2)cc1 -9.62%
Cc1ccc(CNC(=O)CSc2nc3n[nH]c(C)c3c(=N)n2-c2ccccc2Cl)cc1 -11.6%
O=C(Nc1ccccc1C(=O)OCc1cc(=O)n2nc(C3CC3)sc2n1)c1cccc(F)c1 -9.57%
CS(=O)(=O)N1CCc2cc(C(=O)Nc3ccc(C(F)(F)F)cc3)ccc21 -7.12%
Cc1cc(C)n(-c2nc3cc(Cl)ccc3nc2N2CCN(c3ccccc3F)CC2)n1 -6.01%
CCOCCCn1c(SCC(=O)Nc2ccccc2Cl)nc2c(oc3ccccc32)c1=O -15.8%
Cc1ccccc1OCCCCn1nnc2sc3c(c2c1=O)CCC(C)C3 (centres undefined) -19%
Cc1ccc(CCNC(=O)c2ccc3c(c2)nc2n3CCOC2)cc1 0.206%
Cc1nc2sccn2c(=O)c1S(=O)(=O)Nc1cc(C(F)(F)F)ccc1Cl -13.3%
CN1C(=O)C2(SCC(=O)N2c2ccc(Cl)cc2)c2ccccc21 (centres undefined) -15.4%
COCCNC(=O)c1ccc(-c2nc(CS(=O)(=O)c3ccccc3)c(C)o2)cc1 -16.7%
COc1ccccc1CNC(=O)CSc1nnc(C)c2c(C)n(-c3ccccc3)nc12 -17.1%
O=C(Nc1ccc(F)c(Cl)c1)N1CCC(CN2CCOCC2)CC1 0.509%
CCc1nn2c(=O)c(S(=O)(=O)Nc3ccc(C(C)C)cc3)c(C)nc2s1 -7.98%
CNNCc1ccc(C(=O)NC(C)C)cc1 -7.81%
CCc1ccc(-n2nc3ccc(NC(=O)COc4ccc(OC)cc4)cc3n2)cc1 -24.8%
Nc1ccc(C(=O)Oc2ccccc2)c(O)c1 -11.4%
O=C(CSc1nc2c(c(=O)[nH]1)CN(Cc1ccc3c(c1)OCO3)CC2)Nc1ccccc1Cl -22%
CCOc1ccc(NC(=O)CSc2nc3ccsc3c(=O)n2CCCCCC(=O)O)cc1 -8.6%
CCOc1ccc(NCc2nc3ccccc3n2CCOc2ccc(C)cc2)cc1 -2.37%
CC(=O)N1CCCc2cc(S(=O)(=O)N3CCCC(C(=O)NCc4ccc(C)cc4)C3)ccc21 (centres undefined) -21.9%
Cc1ccc2oc(C(=O)N(Cc3sccc3C)C3CCS(=O)(=O)C3)c(C)c2c1 (centres undefined) -6.53%
CCOc1ccc(Nc2c(S(=O)(=O)c3ccc(C)cc3)cnc3ccc(F)cc23)cc1 -2.28%
COc1cccc(CNC(=O)c2nc(Cn3nc(C)c(Br)c3C)no2)c1 -2.35%
COc1ccccc1CNC(=O)C(=O)NCC(c1cccs1)S(=O)(=O)c1cccs1 (centres undefined) -31.1%
COc1ccc(-n2c(=O)c3c4c(sc3n(C)c2=O)CN(C(C)=O)CC4)cc1 -9.17%
O=c1cc(-c2ccccc2)n2c(SCc3ccccc3Cl)nnc2[nH]1 -11.4%
C[N+]1(C)CCC(=C(c2ccccc2)c2ccccc2)CC1 -18.9%
CCCCN(C)C(=O)CSc1nc2ccccc2nc1Cc1ccc(C)cc1 16.8%

Reference: PubChem BioAssay AID1159614 (National Center for Advancing Translational Sciences (NCATS), 2016)
